Reference: the supplement of paper PMC3334620
Whole data set: some 33,000 sequences, median “E-score (-0.5 to 0.5)” near -0.041, cut for the highest 2% near 0.37. This is one part of the list.

target: T1, Ecm22 (UniProt Q05958); assay: PBM E-score (8-mer binding enrichment) (E-score (-0.5 to 0.5)); higher = stronger / more preferred TF binding; most listed sequences are background and not binding sites; settings: protein concentration: 200 nM; construct: GST-full length
T1 sequence: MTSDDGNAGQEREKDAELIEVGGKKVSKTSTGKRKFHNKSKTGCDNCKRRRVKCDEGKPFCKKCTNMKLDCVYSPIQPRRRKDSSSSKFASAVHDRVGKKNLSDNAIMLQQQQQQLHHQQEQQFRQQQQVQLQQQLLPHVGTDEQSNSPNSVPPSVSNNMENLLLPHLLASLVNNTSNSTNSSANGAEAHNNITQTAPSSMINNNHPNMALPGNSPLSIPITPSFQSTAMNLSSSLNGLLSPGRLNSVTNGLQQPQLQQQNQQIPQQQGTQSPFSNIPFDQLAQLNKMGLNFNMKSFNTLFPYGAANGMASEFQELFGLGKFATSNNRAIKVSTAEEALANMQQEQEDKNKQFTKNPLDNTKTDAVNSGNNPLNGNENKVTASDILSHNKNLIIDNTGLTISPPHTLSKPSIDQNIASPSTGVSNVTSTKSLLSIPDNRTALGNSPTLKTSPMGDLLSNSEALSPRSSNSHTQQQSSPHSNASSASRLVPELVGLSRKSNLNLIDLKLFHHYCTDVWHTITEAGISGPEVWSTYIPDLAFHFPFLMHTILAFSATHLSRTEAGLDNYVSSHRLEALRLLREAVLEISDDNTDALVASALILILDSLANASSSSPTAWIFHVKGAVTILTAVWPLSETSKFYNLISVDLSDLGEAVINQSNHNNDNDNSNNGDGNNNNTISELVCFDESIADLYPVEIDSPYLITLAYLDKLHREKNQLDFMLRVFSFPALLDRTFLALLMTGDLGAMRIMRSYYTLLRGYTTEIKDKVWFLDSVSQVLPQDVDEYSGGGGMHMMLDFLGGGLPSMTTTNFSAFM
How it was run: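 Full-length yeast transcription factors or their DNA-binding domains, GST-tagged and expressed with PURExpress, were applied at about 100-200 nM to universal all-10-mer Agilent arrays. These arrays had been made double-stranded by primer extension on fresh or once-stripped slides. Detection used fluorescent anti-GST, normalisation used masliner, and E-scores for ungapped eight-base words pooled with reverse complements came from the Universal PBM Analysis Suite.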

| Sequence | PBM E-score |
| --- | --- |
| ATGCAAAG | 0.0339 |
| ACAATAAT | -0.0625 |
| CGACCTCG | 0.183 |
| ACTGAAGC | -0.0293 |
| CACTCCTG | -0.226 |
| TCACGAGA | 0.0348 |
| GCACCAGA | 0.0194 |
| AGCCGCAA | -0.119 |
| CCGCTTTC | -0.0554 |
| CTCACGTC | -0.119 |
| CGGGACTA | -0.255 |
| GAAACGAA | 0.414 |
| AAAATATG | 0.0806 |
| GAAGTGAC | -0.00127 |
| CCACATGA | -0.246 |
| CCCAATTA | -0.136 |
| CGAAGGGC | 0.0256 |
| GCCAATTA | -0.0848 |
| ACGTTTAG | 0.33 |
| ATGCTTCG | 0.199 |
| CGTGTGTC | 0.0878 |
| ACAGGATC | -0.228 |

| Sequence | PBM E-score |
| --- | --- |
| CAGGACCG | -0.0291 |
| CGGGCTCC | -0.163 |
| AAATGATC | 0.0271 |
| CTACAGGA | -0.23 |
| CTTATCAC | 0.00894 |
| GGATGCGA | 0.166 |
| AGGAAACT | -0.189 |
| ATTCCATC | -0.0116 |
| ACCCTATA | -0.0965 |
| GGCCTTAC | 0.0102 |
| AAAGATAA | -0.0948 |
| CGGGCGGA | -0.115 |
| AATAACCA | -0.161 |
| AATACAAC | 0.0357 |
| GAGGAATC | -0.102 |
| CTTACCAC | -0.145 |
| ATGATTAC | -0.0653 |
| ACATTCAG | -0.184 |
| AAATAAAA | 0.0223 |
| AGCCAGTA | -0.359 |
| TAGATATA | 0.193 |
| GTTGCGAA | 0.195 |

| Sequence | PBM E-score |
| --- | --- |
| TCGGGCAA | -0.00674 |
| GTCGGTAA | 0.209 |
| AGACAGCG | -0.155 |
| ATATAAAC | 0.212 |
| CGCACGGC | -0.0936 |
| GGGTTTAA | -0.0497 |
| AGTCGGCC | -0.0769 |
| GACATTAA | -0.0106 |
| CATGAGGA | -0.166 |
| CCCCACGA | -0.163 |
| TCCACGAA | 0.119 |
| TACAGCTA | -0.105 |
| CGACTTGC | -0.0249 |
| GTGAGGAA | -0.00439 |
| ACAATGAT | -0.0379 |
| CGTGAAAC | -0.00739 |
| ACGCAAAT | -0.073 |
| AAACGAGT | 0.456 |
| ATGTTGAA | 0.0309 |
| AGTTTCAA | -0.249 |
| CTCAATGC | -0.0421 |
| AACGATGC | 0.348 |

| Sequence | PBM E-score |
| --- | --- |
| AGCTCCTC | -0.136 |
| CCGTGCCC | -0.158 |
| ATGGGAAA | -0.258 |
| ATAGCTCC | -0.169 |
| CAAAAGTC | -0.025 |
| CACTCCAA | -0.167 |
| GCTATACA | -0.0645 |
| GTGTCTTA | 0.0249 |
| ACCATAGT | -0.101 |
| GTAAACAA | 0.279 |
| CGCCATCC | -0.13 |
| GTTCAATA | 0.0249 |
| CTTTCTTA | -0.00264 |
| AAGATCCA | -0.089 |
| CTTCCGGA | -0.243 |
| GACTCGGC | 0.071 |
| AGTACGCG | 0.197 |
| GCGTAATA | 0.0727 |
| GAATAGTC | 0.0353 |
| TATCCCCA | -0.243 |
